# Reference: the supplement of paper PMC4604168 (melanoma cell lines)
# Some of the results follow. Single values are uncertain, as repeats are few or missing.
# Key:
# Assay in all cases: cell count relative to DMSO control; melanoma cells; higher = more viable cells
# Conditions in all cases: library dose: standard library concentration; 72 h
# SkMel28 = tested on: SkMel28
# SkMel2 = tested on: SkMel2
# SkMel30 = tested on: SkMel30
# SkMel5 = tested on: SkMel5
# UACC257 = tested on: UACC257
# UACC62 = tested on: UACC62
# WM115 = tested on: WM115
# WM1716 = tested on: WM1716
# WM3526 = tested on: WM3526
# WM1745 = tested on: WM1745
# 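Further: cells treated in 1,536-well plates, then fixed and DAPI-stained, with nuclei counted from automated high-throughput microscope images.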
Structure (SMILES),cell count (SkMel28),cell count (SkMel2),cell count (SkMel30),cell count (SkMel5),cell count (UACC257),cell count (UACC62),cell count (WM115),cell count (WM1716),cell count (WM3526),cell count (WM1745)
"CS(=O)(=O)c1ccc(C(=O)Nc2ccc(Cl)c(-c3ccccn3)c2)c(Cl)c1 [vismodegib] + COc1ccc(-c2ccc3c(N4CCOCC4)nc(N4C[C@@H](C)O[C@@H](C)C4)nc3n2)cc1CO [KU0063794] (first compound 5 µM, partner dose 0.1 µM)",89.9%,74.3%,94.8%,72%,95.7%,87%,98.8%,103%,91.7%,
"CCCS(=O)(=O)Nc1ccc(F)c(C(=O)c2c[nH]c3ncc(Cl)cc23)c1F + COc1cc(N2CCC(N3CCN(C)CC3)CC2)ccc1Nc1ncc(Cl)c(Nc2ccccc2S(=O)(=O)C(C)C)n1 [NVP-TAE684] (first compound 0.4 µM, partner dose 0.4 µM)",60.1%,74%,121%,62.4%,85.4%,50.7%,51%,73.9%,56%,
"CS(=O)(=O)c1ccc(C(=O)Nc2ccc(Cl)c(-c3ccccn3)c2)c(Cl)c1 [vismodegib] + O=C1NC(=O)/C(=C/c2ccc(-c3ccc(F)cc3O)o2)S1 [AS252424] (first compound 5 µM, partner dose 5 µM)",101%,88.7%,86.4%,78.5%,102%,68.5%,89.5%,90.4%,79.3%,
"C=C(c1ccc(C(=O)O)cc1)c1cc2c(cc1C)C(C)(C)CCC2(C)C [Bexarotene] + CCCCCCCCCCCC1=C(O)C(=O)C=C(O)C1=O [Embelin] (first compound 10 µM, partner dose 6 µM)",90.9%,91.4%,131%,94.3%,83.9%,96.3%,96.5%,79%,91.9%,
"CCCS(=O)(=O)Nc1ccc(F)c(C(=O)c2c[nH]c3ncc(Cl)cc23)c1F + Cc1cc(N2CCOCC2)cc2[nH]c(-c3c(NC[C@@H](O)c4cccc(Cl)c4)cc[nH]c3=O)nc12 [BMS536924] (first compound 0.4 µM, partner dose 1 µM)",47.4%,,80.2%,87.4%,81.5%,48.6%,53.8%,65.5%,52.1%,56.7%
"CN(c1ncccc1CNc1nc(Nc2ccc3c(c2)CC(=O)N3)ncc1C(F)(F)F)S(C)(=O)=O + COC(=O)c1sccc1S(=O)(=O)Nc1ccc(Nc2ccccc2)cc1OC [GSK0660] (first compound 0.4 µM, partner dose 5 µM)",74.1%,71.1%,88.5%,73.5%,71.9%,83.8%,73.7%,80.7%,89%,
"NC1(c2ccc(-c3nc4ccn5c(=O)[nH]nc5c4cc3-c3ccccc3)cc2)CCC1 + O=C1NC(=O)/C(=C/c2ccc(-c3ccc(F)cc3O)o2)S1 [AS252424] (first compound 2 µM, partner dose 5 µM)",51.2%,68.4%,101%,61.6%,79.4%,60.8%,74.5%,76.1%,62.8%,
"C=C(c1ccc(C(=O)O)cc1)c1cc2c(cc1C)C(C)(C)CCC2(C)C [Bexarotene] + COc1ccc(-c2ccc3c(N4CCOCC4)nc(N4C[C@@H](C)O[C@@H](C)C4)nc3n2)cc1CO [KU0063794] (first compound 10 µM, partner dose 0.1 µM)",74.8%,79.7%,128%,82.1%,80.8%,107%,97.5%,77.8%,98.7%,
"CN(c1ncccc1CNc1nc(Nc2ccc3c(c2)CC(=O)N3)ncc1C(F)(F)F)S(C)(=O)=O + CCc1ccc(CCOc2ccc(CC3SC(=O)NC3=O)cc2)nc1 [pioglitazone] (first compound 0.4 µM, partner dose 10 µM)",78.8%,73%,95.2%,62.5%,77.5%,67.8%,74.8%,93.6%,130%,
"CCCS(=O)(=O)Nc1ccc(F)c(C(=O)c2c[nH]c3ncc(Cl)cc23)c1F + NC(=O)Nc1cc(-c2cccc(F)c2)sc1C(=O)N[C@H]1CCCNC1 [AZD7762] (first compound 0.4 µM, partner dose 0.1 µM)",34.6%,,67.1%,91.9%,80.8%,58.3%,59%,47.8%,46.4%,71.4%
"NC1(c2ccc(-c3nc4ccn5c(=O)[nH]nc5c4cc3-c3ccccc3)cc2)CCC1 + CCN(CC)CCCCNc1ncc2cc(-c3cc(OC)cc(OC)c3)c(NC(=O)NC(C)(C)C)nc2n1 [PD173074] (first compound 2 µM, partner dose 0.5 µM)",72.5%,71.7%,99.6%,65.8%,95.6%,72.1%,79.5%,67.6%,57.9%,
